± gives the standard error. Variants at the floor of the assay are shown more often than the library holds them.
B1: glmS ribozyme (parent)
chain: AUAAAAGCGCCAGAACUACAGAAAUGUAGUUGACGAGGAGGAGGUUUAUCGAAUUUUCGGCGGAUGCCUCCAAA

Tests used:
Conditions in all cases: with glucosamine-6-phosphate
[1] = variants of: B1; assay: self-cleavage kobs at 640 uM GlcN6P; higher = faster cleavage; RNA array
Method in brief: (§1)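 Tiles of sequenced MiSeq chips were imaged over ~14 h at 37 °C. On them, barcoded ribozyme variants had been transcribed in situ by E. coli RNA polymerase and were tracked via a hybridised Cy3 probe while glucosamine-6-phosphate (40 μM to 10 mM) in HEPES/KCl/Mg(OAc)2 buffer flowed in. Per-tile medians, normalised to baseline and to non-cleaving reference variants, were fit to one- or two-exponential decays for kobs, and weighted Michaelis–Menten fits gave kcat and KM.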

[2] = variants of: B1; assay: self-cleavage kobs at 160 uM GlcN6P; higher = faster cleavage; RNA array
Method in brief: as §1

[3] = variants of: B1; assay: self-cleavage kobs at 2500 uM GlcN6P; higher = faster cleavage; RNA array
Method in brief: as §1

[4] = variants of: B1; assay: self-cleavage kobs at 10000 uM GlcN6P; higher = faster cleavage; RNA array
Method in brief: as §1

U31G U56G C67U
self-cleavage kobs at 640 uM GlcN6P [1]: 0.000176 ± 5.1e-05 s⁻¹
self-cleavage kobs at 160 uM GlcN6P [2]: 8.73e-05 ± 3.2e-05 s⁻¹
self-cleavage kobs at 2500 uM GlcN6P [3]: 0.000493 ± 0.00014 s⁻¹
self-cleavage kobs at 10000 uM GlcN6P [4]: 0.00086 ± 0.00015 s⁻¹

C16A G51U U69G
self-cleavage kobs at 640 uM GlcN6P [1]: 9.84e-05 ± 4.1e-05 s⁻¹
self-cleavage kobs at 2500 uM GlcN6P [3]: 0.000199 ± 9.6e-05 s⁻¹

G29A G66U
self-cleavage kobs at 640 uM GlcN6P [1]: 6.51e-05 ± 2e-05 s⁻¹
self-cleavage kobs at 2500 uM GlcN6P [3]: 6.95e-05 ± 1.9e-05 s⁻¹

C16G G41A U46G
self-cleavage kobs at 640 uM GlcN6P [1]: < 1e-05 s⁻¹

G29A C34U G51C C67U
self-cleavage kobs at 640 uM GlcN6P [1]: < 1e-05 s⁻¹
self-cleavage kobs at 160 uM GlcN6P [2]: < 1e-05 s⁻¹

G32C U45G A48U C68G C71U
self-cleavage kobs at 640 uM GlcN6P [1]: < 1e-05 s⁻¹
self-cleavage kobs at 2500 uM GlcN6P [3]: < 1e-05 s⁻¹

A33C G35A U46A
self-cleavage kobs at 640 uM GlcN6P [1]: < 1e-05 s⁻¹

U31G G35C C68G
self-cleavage kobs at 640 uM GlcN6P [1]: < 1e-05 s⁻¹

U30C U31C G38C
self-cleavage kobs at 640 uM GlcN6P [1]: < 1e-05 s⁻¹
self-cleavage kobs at 2500 uM GlcN6P [3]: < 1e-05 s⁻¹

U31A G32A G59U G62A
self-cleavage kobs at 640 uM GlcN6P [1]: < 1e-05 s⁻¹

A33U G44U U56G C68U
self-cleavage kobs at 640 uM GlcN6P [1]: < 1e-05 s⁻¹
self-cleavage kobs at 160 uM GlcN6P [2]: < 1e-05 s⁻¹

U30C U46G U57C
self-cleavage kobs at 640 uM GlcN6P [1]: < 1e-05 s⁻¹

C16G U30C C50U
self-cleavage kobs at 640 uM GlcN6P [1]: < 1e-05 s⁻¹

A15G C16G A42G C67G
self-cleavage kobs at 640 uM GlcN6P [1]: 0.000348 ± 6.7e-05 s⁻¹
self-cleavage kobs at 160 uM GlcN6P [2]: 7.28e-05 ± 3.4e-05 s⁻¹
self-cleavage kobs at 2500 uM GlcN6P [3]: 0.000115 ± 3.5e-05 s⁻¹
self-cleavage kobs at 10000 uM GlcN6P [4]: 0.000521 ± 0.00022 s⁻¹

G32A G41C U55G G66C
self-cleavage kobs at 640 uM GlcN6P [1]: < 1e-05 s⁻¹

C16G G40U U49G G60A C70U
self-cleavage kobs at 640 uM GlcN6P [1]: < 1e-05 s⁻¹
self-cleavage kobs at 2500 uM GlcN6P [3]: < 1e-05 s⁻¹

G32C G43C G60U
self-cleavage kobs at 640 uM GlcN6P [1]: < 1e-05 s⁻¹
self-cleavage kobs at 160 uM GlcN6P [2]: < 1e-05 s⁻¹

G32A A33G C34G A39C G60A
self-cleavage kobs at 640 uM GlcN6P [1]: < 1e-05 s⁻¹

A15U G35C A53U
self-cleavage kobs at 640 uM GlcN6P [1]: < 1e-05 s⁻¹
self-cleavage kobs at 2500 uM GlcN6P [3]: < 1e-05 s⁻¹

G32C G40A U56C C70U
self-cleavage kobs at 640 uM GlcN6P [1]: < 1e-05 s⁻¹
self-cleavage kobs at 2500 uM GlcN6P [3]: < 1e-05 s⁻¹

C16G G41A U55A
self-cleavage kobs at 640 uM GlcN6P [1]: < 1e-05 s⁻¹

U30C G37U C58A C68G
self-cleavage kobs at 640 uM GlcN6P [1]: 7.09e-05 ± 2.2e-05 s⁻¹
self-cleavage kobs at 2500 uM GlcN6P [3]: 0.000165 ± 3.6e-05 s⁻¹

G32C A33G A42U U45G U57C A64C C71A
self-cleavage kobs at 640 uM GlcN6P [1]: < 1e-05 s⁻¹
self-cleavage kobs at 2500 uM GlcN6P [3]: < 1e-05 s⁻¹

U31A G38U
self-cleavage kobs at 640 uM GlcN6P [1]: < 1e-05 s⁻¹
self-cleavage kobs at 160 uM GlcN6P [2]: < 1e-05 s⁻¹
self-cleavage kobs at 2500 uM GlcN6P [3]: < 1e-05 s⁻¹
self-cleavage kobs at 10000 uM GlcN6P [4]: < 1e-05 s⁻¹

C16U A39G G66A
self-cleavage kobs at 640 uM GlcN6P [1]: 0.00662 ± 0.0015 s⁻¹

G29C U49C A64U
self-cleavage kobs at 640 uM GlcN6P [1]: < 1e-05 s⁻¹

A33U U56G G60A
self-cleavage kobs at 640 uM GlcN6P [1]: < 1e-05 s⁻¹

A33G G62U U65A
self-cleavage kobs at 640 uM GlcN6P [1]: < 1e-05 s⁻¹
self-cleavage kobs at 2500 uM GlcN6P [3]: < 1e-05 s⁻¹

C16A G44A C58U
self-cleavage kobs at 640 uM GlcN6P [1]: < 1e-05 s⁻¹
self-cleavage kobs at 2500 uM GlcN6P [3]: < 1e-05 s⁻¹
self-cleavage kobs at 10000 uM GlcN6P [4]: < 1e-05 s⁻¹

G29A C70A
self-cleavage kobs at 640 uM GlcN6P [1]: 4.17e-05 ± 1.5e-05 s⁻¹

A33G G66U
self-cleavage kobs at 640 uM GlcN6P [1]: < 1e-05 s⁻¹
self-cleavage kobs at 160 uM GlcN6P [2]: < 1e-05 s⁻¹
self-cleavage kobs at 2500 uM GlcN6P [3]: < 1e-05 s⁻¹

C34A U46G A64G
self-cleavage kobs at 640 uM GlcN6P [1]: < 1e-05 s⁻¹
self-cleavage kobs at 10000 uM GlcN6P [4]: < 1e-05 s⁻¹

G32U G40C G43C
self-cleavage kobs at 640 uM GlcN6P [1]: < 1e-05 s⁻¹
self-cleavage kobs at 2500 uM GlcN6P [3]: < 1e-05 s⁻¹

A33G A39C
self-cleavage kobs at 640 uM GlcN6P [1]: < 1e-05 s⁻¹
self-cleavage kobs at 160 uM GlcN6P [2]: < 1e-05 s⁻¹
self-cleavage kobs at 2500 uM GlcN6P [3]: < 1e-05 s⁻¹
self-cleavage kobs at 10000 uM GlcN6P [4]: < 1e-05 s⁻¹

U30C G44U C67U U69A
self-cleavage kobs at 640 uM GlcN6P [1]: < 1e-05 s⁻¹

U31A G32A
self-cleavage kobs at 640 uM GlcN6P [1]: 0.000222 ± 3.2e-05 s⁻¹
self-cleavage kobs at 160 uM GlcN6P [2]: 6.66e-05 ± 1.2e-05 s⁻¹
self-cleavage kobs at 2500 uM GlcN6P [3]: 0.000381 ± 7.7e-05 s⁻¹
self-cleavage kobs at 10000 uM GlcN6P [4]: 0.0014 ± 0.00017 s⁻¹

G29A U47C
self-cleavage kobs at 640 uM GlcN6P [1]: 8.17e-05 ± 2.3e-05 s⁻¹

A33U C50G G51A
self-cleavage kobs at 640 uM GlcN6P [1]: < 1e-05 s⁻¹

A33C G38C A53U A64U
self-cleavage kobs at 640 uM GlcN6P [1]: < 1e-05 s⁻¹
self-cleavage kobs at 2500 uM GlcN6P [3]: < 1e-05 s⁻¹

G29A A33C C50U
self-cleavage kobs at 640 uM GlcN6P [1]: < 1e-05 s⁻¹

G29C G62U G66U
self-cleavage kobs at 640 uM GlcN6P [1]: < 1e-05 s⁻¹

U31A A33U G44U U69C
self-cleavage kobs at 640 uM GlcN6P [1]: < 1e-05 s⁻¹

A15G C16A G38C G41A C67A
self-cleavage kobs at 640 uM GlcN6P [1]: < 1e-05 s⁻¹
self-cleavage kobs at 10000 uM GlcN6P [4]: < 1e-05 s⁻¹

G35C A36U G37U G38C A42G
self-cleavage kobs at 640 uM GlcN6P [1]: < 1e-05 s⁻¹

U30G U69A
self-cleavage kobs at 640 uM GlcN6P [1]: 4.5e-05 ± 1.1e-05 s⁻¹
self-cleavage kobs at 160 uM GlcN6P [2]: 3.45e-05 ± 1.7e-05 s⁻¹
self-cleavage kobs at 2500 uM GlcN6P [3]: 0.00013 ± 2e-05 s⁻¹
self-cleavage kobs at 10000 uM GlcN6P [4]: 6.73e-05 ± 1.4e-05 s⁻¹

C16U G38U A39G A42U C67U
self-cleavage kobs at 640 uM GlcN6P [1]: < 1e-05 s⁻¹
self-cleavage kobs at 160 uM GlcN6P [2]: < 1e-05 s⁻¹

C34A A39G
self-cleavage kobs at 640 uM GlcN6P [1]: < 1e-05 s⁻¹

C16U G21U G38A A53C
self-cleavage kobs at 640 uM GlcN6P [1]: < 1e-05 s⁻¹

G29U U30G G32C G41U U49C C58U G62A
self-cleavage kobs at 640 uM GlcN6P [1]: < 1e-05 s⁻¹
self-cleavage kobs at 160 uM GlcN6P [2]: < 1e-05 s⁻¹
self-cleavage kobs at 2500 uM GlcN6P [3]: < 1e-05 s⁻¹

A33C A36U A39U
self-cleavage kobs at 640 uM GlcN6P [1]: < 1e-05 s⁻¹

C16A A42C C67U
self-cleavage kobs at 640 uM GlcN6P [1]: < 1e-05 s⁻¹
self-cleavage kobs at 160 uM GlcN6P [2]: < 1e-05 s⁻¹
self-cleavage kobs at 2500 uM GlcN6P [3]: < 1e-05 s⁻¹
self-cleavage kobs at 10000 uM GlcN6P [4]: < 1e-05 s⁻¹

C34G G41U A42U A52G A53G A64G
self-cleavage kobs at 640 uM GlcN6P [1]: < 1e-05 s⁻¹
self-cleavage kobs at 2500 uM GlcN6P [3]: < 1e-05 s⁻¹

C16G G40C G51C C70G
self-cleavage kobs at 640 uM GlcN6P [1]: < 1e-05 s⁻¹

A33G G44U C61U C67G
self-cleavage kobs at 640 uM GlcN6P [1]: < 1e-05 s⁻¹
self-cleavage kobs at 2500 uM GlcN6P [3]: < 1e-05 s⁻¹

C16A G51U C67G
self-cleavage kobs at 640 uM GlcN6P [1]: 0.000109 ± 4.2e-05 s⁻¹

G35A A48U U69C
self-cleavage kobs at 640 uM GlcN6P [1]: < 1e-05 s⁻¹
self-cleavage kobs at 2500 uM GlcN6P [3]: < 1e-05 s⁻¹

C34U C61G
self-cleavage kobs at 640 uM GlcN6P [1]: < 1e-05 s⁻¹
self-cleavage kobs at 160 uM GlcN6P [2]: < 1e-05 s⁻¹

G32U G41C U65G
self-cleavage kobs at 640 uM GlcN6P [1]: < 1e-05 s⁻¹
self-cleavage kobs at 2500 uM GlcN6P [3]: < 1e-05 s⁻¹

G35A U47G C50A U65A
self-cleavage kobs at 640 uM GlcN6P [1]: < 1e-05 s⁻¹
self-cleavage kobs at 160 uM GlcN6P [2]: < 1e-05 s⁻¹
self-cleavage kobs at 2500 uM GlcN6P [3]: < 1e-05 s⁻¹

A33U G35A A52U A53G
self-cleavage kobs at 640 uM GlcN6P [1]: < 1e-05 s⁻¹
self-cleavage kobs at 2500 uM GlcN6P [3]: < 1e-05 s⁻¹

G32U G37C
self-cleavage kobs at 640 uM GlcN6P [1]: < 1e-05 s⁻¹
self-cleavage kobs at 10000 uM GlcN6P [4]: < 1e-05 s⁻¹

A15U A33U U65A
self-cleavage kobs at 640 uM GlcN6P [1]: < 1e-05 s⁻¹
self-cleavage kobs at 160 uM GlcN6P [2]: < 1e-05 s⁻¹
